{"source": "paper PMC12040169", "about": "(PLOS Biology, 2025)", "note": "The list shows a part of the results."}
{"tested_on": "T1, C. trachomatis L2/434/Bu expressing GFP (CTL2-GFP)", "T1 construct": "L2/434/Bu GFP intracellular growth in HeLa cells", "parameters": "species or system HeLa; C. trachomatis total inclusion area by high-content imaging, normalised to DMSO", "conditions": "total inclusion area; 28.5 h, 10 µM; inhibitor", "summary_of_the_method": "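Following bulk GFP and resorufin fluorescence reads, infected cells were fixed, Hoechst-stained and imaged on a high-content platform. Inclusion total area and number per well served as growth proxies; nuclei counts indicated host viability. MICs were derived as for the fluorescence assay.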"}
{"compound": "Cc1nn(Cc2c(F)cccc2Cl)c(C)c1NC(=O)c1cnn2c(C(F)F)cc(-c3ccccc3)nc12", "note": "[CBK267634]", "% of control remaining": 81.9764}
{"compound": "O=C(CCCc1ccccc1)Nc1ccc(F)cc1[N+](=O)[O-]", "note": "[CBK265446]", "% of control remaining": 81.2146}
{"compound": "COc1cc(NC(=O)Nc2ccccc2OC)c(OC)cc1Cl", "note": "[CBK270329]", "% of control remaining": 82.1173}
{"compound": "O=C(NC(Cc1cccs1)c1nccs1)c1cccnc1", "note": "(centres unmarked) [CBK285133]", "% of control remaining": 75.8392}
{"compound": "Cc1ccc(-c2csc3c(=O)[nH]c(N4CCCC(C(=O)NCc5cccnc5)C4)nc23)cc1", "note": "(centres unmarked) [CBK215546]", "% of control remaining": 127.024}
{"compound": "CN(C(=O)CN)c1nc2c(s1)CC(c1ccccc1)CC2", "note": "(centres unmarked) [CBK304298C]", "% of control remaining": 59.5674}
{"compound": "O=C1NC(=O)C(c2ccccc2)(c2ccccn2)N1", "note": "(centres unmarked) [CBK288455]", "% of control remaining": 73.4838}
{"compound": "N/C(=N\\O)c1ccc(OC(F)(F)F)cc1", "note": "[CBK019865]", "% of control remaining": 81.431}
{"compound": "O=C(O)COCc1cc(-c2ccc3c(c2)OCO3)on1", "note": "[CBK286883]", "% of control remaining": 124.236}
{"compound": "CCN1CCc2cc(-c3cncn3CCCn3nc(C)cc3C)ccc21", "note": "[CBK281572]", "% of control remaining": 102.233}
{"compound": "O=C(Nc1cccc(OC(=O)c2cc(S(=O)(=O)N3CCCCC3)ccc2Cl)c1)c1ccco1", "note": "[CBK262186]", "% of control remaining": 38.6739}
{"compound": "NC(=O)c1ccccc1NC(=S)NC(=O)c1cc2ccccc2o1", "note": "[CBK265633]", "% of control remaining": 110.975}
{"compound": "CCOc1ccc2nc(NS(=O)(=O)c3cccc(C(=O)O)c3)sc2c1", "note": "[CBK161137]", "% of control remaining": 83.7009}
{"compound": "Cc1cc(C)c2c(c1)cc(C)c1nn(CC(=O)NC3CC3)c(=O)n12", "note": "[CBK283877]", "% of control remaining": 74.8142}
{"compound": "CCCNC(=O)Cn1cnc2sc(C(=O)Nc3ccccc3OC)c(C)c2c1=O", "note": "[CBK071910]", "% of control remaining": 118.46}
{"compound": "CC1(C)Cc2cccc(OCC(=O)O)c2O1", "note": "[CBK270161]", "% of control remaining": 109.259}
{"compound": "COc1ccccc1NC(=O)COc1ccc(C)cc1[N+](=O)[O-]", "note": "[CBK269724]", "% of control remaining": 67.0553}
{"compound": "O=C(Cc1ccc(F)cc1)Nc1nc(-c2cccs2)cs1", "note": "[CBK287736]", "% of control remaining": 83.0434}
{"compound": "COc1cc(NS(=O)(=O)c2ccc(Nc3nc(-c4sc(N)nc4C)cs3)cc2)nc(OC)n1", "note": "[CBK262796]", "% of control remaining": 42.6689}
{"compound": "COc1cccc(CN[C@@H]2CCC[C@H]2Cc2cc(C)no2)c1", "note": "[CBK283006]", "% of control remaining": 85.9072}
{"compound": "CC1(C)CC(=O)C=C(C(=O)NCc2c(F)cccc2F)O1", "note": "[CBK153287]", "% of control remaining": 102.061}
{"compound": "Cc1nn(CCC(=O)NC(c2ccccc2)c2cccnc2)c(C)c1C", "note": "(centres unmarked) [CBK282547]", "% of control remaining": 89.4945}
{"compound": "N#Cc1ccc(CN2C[C@@H]3OCC(=O)N[C@@H]3C2)cc1", "note": "[CBK289261]", "% of control remaining": 116.4}
{"compound": "O=C(OCC#CCSc1nnc(-c2ccccc2)o1)c1ccc([N+](=O)[O-])cc1", "note": "[CBK265588]", "% of control remaining": 114.104}
{"compound": "CCN(Cc1ccncc1)C(=O)NCCCN1CCN(C)CC1", "note": "[CBK155123]", "% of control remaining": 86.6795}
{"compound": "Fc1ccc(-c2cn(-c3ccc4c(c3)CCO4)nn2)cc1", "note": "[CBK113132]", "% of control remaining": 57.8078}
{"compound": "NS(=O)(=O)c1ccc(CCNCc2ccc3c(c2)OCO3)cc1", "note": "[CBK269819C]", "% of control remaining": 75.2877}
{"compound": "Cc1ccccc1Nc1nc(-c2ccc([N+](=O)[O-])cc2)nc2ccccc12", "note": "[CBK264803]", "% of control remaining": 109.338}
{"compound": "O=C(NCCc1c[nH]c2ccccc12)c1cccs1", "note": "[CBK231038]", "% of control remaining": 88.8984}
{"compound": "Cc1csc(C(Cc2ccsc2)NC(=O)Cn2cccn2)n1", "note": "(centres unmarked) [CBK282831]", "% of control remaining": 100.919}
{"compound": "CC(C)NC(=O)C1CCN(c2nc3ccccc3n2C)CC1", "note": "[CBK283986]", "% of control remaining": 101.763}
{"compound": "Cc1ncn(Cc2nc(-c3ccsc3)no2)c(=O)c1C", "note": "[CBK304158]", "% of control remaining": 42.259}
{"compound": "S=C(NCCN1CCCCC1)NCc1ccccc1", "note": "[CBK263066]", "% of control remaining": 76.9217}
{"compound": "NCc1ccc(CN(Cc2cccc(Cl)c2)C(=O)NC(c2ccccc2)c2ccccc2)cc1", "note": "[CBK046087C]", "% of control remaining": 55.3283}
{"compound": "COc1cccc(OCC(=O)Nc2ccc(Cl)cc2C(=O)O)c1", "note": "[CBK264208]", "% of control remaining": 121.617}
{"compound": "CCN(CC(=O)N1CCN(Cc2ccc3c(c2)OCO3)CC1)S(=O)(=O)c1ccccc1", "note": "[CBK269436]", "% of control remaining": 63.8059}
{"compound": "O=C(Nc1cc(N2CCCS2(=O)=O)ccc1F)c1cccnc1O", "note": "[CBK306320]", "% of control remaining": 97.8132}
{"compound": "O=C1CCCN1c1ccc(S(=O)(=O)N2CCN(c3ccccn3)CC2)cc1", "note": "[CBK268237]", "% of control remaining": 121.087}
{"compound": "CC(C)(C)c1ccc(-c2nc(O)c(CC(=O)O)s2)cc1", "note": "[CBK067734]", "% of control remaining": 98.0934}
{"compound": "CCCOC1CCCN(C(=O)c2ccc(-c3ccc(Cl)cn3)cc2)C1", "note": "(centres unmarked) [CBK306540]", "% of control remaining": 67.0931}
{"compound": "CCCc1cc(CNC(=O)c2cc(C3CC3)nn2C)on1", "note": "[CBK282048]", "% of control remaining": 81.4265}
{"compound": "O=C1OCC(O)=C1C(c1ccccc1)C1CC1", "note": "(centres unmarked) [CBK010731]", "% of control remaining": 60.8117}
{"compound": "CC1(C)Cc2c(c(-c3ccco3)nc3[nH]nc(N)c23)CO1", "note": "[CBK009252]", "% of control remaining": 108.891}
{"compound": "c1coc(CCC2NCCn3cccc32)c1", "note": "(centres unmarked) [CBK023964F]", "% of control remaining": 124.404}
{"compound": "Cc1ccc(C(=O)C(OC(=O)c2ccc(-c3nnc(-c4ccccc4)o3)cc2)c2ccccc2)cc1", "note": "(centres unmarked) [CBK265177]", "% of control remaining": 93.0753}
{"compound": "CCOC(=O)c1csc(C2CCCN2C(=O)c2cc(SC)ccc2Cl)n1", "note": "(centres unmarked) [CBK306491]", "% of control remaining": 104.391}
{"compound": "CCS(=O)(=O)N1CC2CCCC(O)(c3cccc(F)c3)C2C1", "note": "(centres unmarked) [CBK283108]", "% of control remaining": 94.5872}
{"compound": "CN(C)CCOc1ncccc1OCCO", "note": "[CBK000655F]", "% of control remaining": 88.0654}
{"compound": "O=C(NC(c1ccc(F)cc1)c1cccs1)c1ccccn1", "note": "(centres unmarked) [CBK295636]", "% of control remaining": 105.702}
{"compound": "Cc1nnc(Sc2nc(CN3CCOCC3)nc3scc(-c4cccs4)c23)n1C", "note": "[CBK297092]", "% of control remaining": 79.4451}
{"compound": "Nc1c(Cl)cc(NC(=O)CCCC(=O)O)cc1Cl", "note": "[CBK263957]", "% of control remaining": 122.544}
{"compound": "O=C(CN1CCOCC1)Nc1ccc(NC(=O)CN2CCOCC2)cc1", "note": "[CBK265045]", "% of control remaining": 91.5146}
{"compound": "NC1CCN(C(=O)c2cn(C3CC3)c3cc(Cl)c(F)cc3c2=O)CC1", "note": "[CBK168626]", "% of control remaining": 108.987}
